Hit rate of the full screen: of about 420,000 compounds, about 64,000 (15%) were called active. This list was built around the results that the source calls inconclusive (neither active nor inactive); the mix of calls is not that of the screen. Calls come from the whole dose curve; as a rule, active = well fitted inhibition curve with a large enough effect; inconclusive = small, poorly fitted or top-dose-only effect; inactive = flat fitted curve, though single readings scatter. No potency is given beside an inconclusive call; the fits are too rough.
assay: qHTS for Inhibitors of human tyrosyl-DNA phosphodiesterase 1 (TDP1): qHTS in cells in absence of CPT; settings: DT40 Tdp1-/- hTDP1 cells, no CPT, ATP luminescence, 48 h; activity change, negative = growth inhibition: at 46.2 µM (top of the series) unless noted; note: nearly all actives have a fitted effect of over 55% in size
Summary of the method: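 Cells were dispensed at 400 per well, compounds added by pin tool, plates incubated ≥48 hr at 37 °C, then CellTiter-Glo added for 30 min at room temperature before luminescence reading. Line: DT40 Tdp1-/- complemented with hTDP1; camptothecin omitted.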
% is set by controls: 0 for no effect and ±100 for the full control effect; potency is the fitted concentration of half-maximal effect; tags give direction and shape of the fitted curve.

**Q.** Which Potency does the source give for `Cc1noc(C)c1COc1ccc(C(=O)OCC(=O)N2c3ccccc3NC(=O)C2(C)C)cc1` here?
**A.** inconclusive [inhibitor, partial curve, poor fit]

**Q.** With `O=C(N/N=C/c1ccc(O)cc1)c1cc(-c2ccccc2)nc2ccccc12` as the compound, how does the Potency read?
**A.** inconclusive [inhibitor, full curve]

**Q.** Which Potency does the source give for `CCOC(=O)c1sc(NC(=O)CSc2n[nH]c(-c3ccc(Cl)cc3Cl)n2)c(C#N)c1C` here?
**A.** active: 16.4 µM

**Q.** Which Potency does the source give for `CCOC(=O)N1CCN(C(=O)CN(Cc2ccccc2)S(=O)(=O)c2ccc(OC)c(Cl)c2)CC1` here?
**A.** inconclusive [inhibitor, single point]

**Q.** For `O=C(COc1ccc2ccccc2c1)NCCNC(=O)COc1ccc2ccccc2c1`, which Potency is on record?
**A.** inconclusive [inhibitor, single point]

**Q.** For `OC(c1ccccc1)c1ccccc1CN1CCCNC1=S` (stereo not given), which “activity change, negative = growth inhibition” value is on record?
**A.** inactive: -28.6%

**Q.** With `Cc1c(NC(=O)c2nc3ccccc3nc2N2CCCCC2)cccc1[N+](=O)[O-]` as the compound, how does the Potency read?
**A.** inconclusive [inhibitor, single point]

**Q.** For `NC(=O)c1ccc(NC(=S)NCc2ccco2)cc1`, which “activity change, negative = growth inhibition” value is on record?
**A.** inactive: 15.5%

**Q.** With `COC(=O)c1ccc(NC(=O)CNCc2ccncc2)cc1` as the compound, how does the Potency read?
**A.** inconclusive [inhibitor, single point]

**Q.** With `CC(Cc1ccccc1)=NNc1ccc([N+](=O)[O-])cc1[N+](=O)[O-]` as the compound, how does the Potency read?
**A.** active: 7.31 µM

**Q.** For `O=C(CCN1CCN(c2ccccc2)CC1)Nc1cccc(Br)c1`, which Potency is on record?
**A.** inconclusive [inhibitor, single point]

**Q.** For `Cc1cc(F)ccc1-c1cc(C(=O)N2CCN(c3ccncc3)CC2)[nH]n1`, which Potency is on record?
**A.** inconclusive [inhibitor, single point]

**Q.** With `CN(C)CCCN(C(=O)c1cc(Cl)sc1Cl)c1nc2cc3c(cc2s1)OCO3` as the compound, how does the “activity change, negative = growth inhibition” value read?
**A.** inactive: -25.4%

**Q.** For `CCOC(=O)[C@]12CCCC=C1N(CCC1=CCCCC1)C(=O)[C@H](CC(=O)N1CCC(c3ccccc3)CC1)C2`, which Potency is on record?
**A.** active: 14.6 µM

**Q.** With `CC(=O)O[C@H]1[C@@H](O)[C@H](O)[C@H](Oc2c(O)c(C)c3c4c2[C@@H](C)CC[C@@H]4[C@@H](C)C[C@H]3C=C(C)C)O[C@H]1C` as the compound, how does the Potency read?
**A.** active: 18.4 µM

**Q.** Which Potency does the source give for `CCCCC(=O)NC(Nc1ccc(C)cn1)(C(=O)OCC)C(F)(F)F` (stereo not given) here?
**A.** inconclusive [inhibitor, partial curve, poor fit]

**Q.** With `O=[N+]([O-])c1ccc(Cc2nnc(-c3ccccc3Cl)o2)cc1` as the compound, how does the Potency read?
**A.** inconclusive [inhibitor, single point]

**Q.** For `COc1ncccc1C(=O)N1CCOc2ccc(C(O)C(c3ccccc3)c3ccccc3)cc2C1` (stereo not given), which Potency is on record?
**A.** inconclusive [inhibitor, single point]

**Q.** With `COc1ccc2oc3cc(C)[n+]([O-])c(-c4ccc(Br)cc4)c3c2c1` as the compound, how does the Potency read?
**A.** active: 0.0082 µM

**Q.** With `c1ccc2c(c1)nnn2CNc1nccs1` as the compound, how does the “activity change, negative = growth inhibition” value read?
**A.** inactive: -33.4%

**Q.** Which “activity change, negative = growth inhibition” value does the source give for `COc1cc(C#N)ccc1OCC(=O)NCCC1=CCCCC1` here?
**A.** inactive: -0.554%

**Q.** With `O=c1c2[nH]c3ccc(Cl)cc3c2ncn1Cc1ccccn1` as the compound, how does the “activity change, negative = growth inhibition” value read?
**A.** inactive: 7.63%

**Q.** For `Cc1csc(NC(=O)CSc2nc(C(C)C)nc3c2c(=O)n(C)c(=O)n3C)n1`, which Potency is on record?
**A.** active: 4.61 µM

**Q.** With `O=[N+]([O-])c1ccc2c(c1)nc1n2CCN(C2CCCCC2)C1` as the compound, how does the Potency read?
**A.** inconclusive [inhibitor, partial curve, poor fit]

**Q.** Which Potency does the source give for `COC(=O)c1cccc(Nc2cc(C)nc(-c3ccccc3O)n2)c1` here?
**A.** active: 16.4 µM

**Q.** Which “activity change, negative = growth inhibition” value does the source give for `CN(C)c1ncc2nc(-c3cc(F)cc(F)c3)c(=O)n(Cc3ccc(F)cc3)c2n1` here?
**A.** inactive: 0.0366%

**Q.** Which Potency does the source give for `COc1ccc(NC(=O)c2noc(C(C)C)c2[N+](=O)[O-])cc1` here?
**A.** inconclusive [inhibitor, single point]

**Q.** With `Cc1cccc(Nc2nc(N)nc(CN3CCC(C(N)=O)CC3)n2)c1C` as the compound, how does the “activity change, negative = growth inhibition” value read?
**A.** inactive: -20.2%

**Q.** With `O=C(O)c1cc2n(n1)C(C(F)(F)F)CC(C1CC1)N2` (stereo not given) as the compound, how does the Potency read?
**A.** inconclusive [inhibitor, single point]

**Q.** For `Cc1cccc(NC(=O)c2cc(Cl)ccc2[N+](=O)[O-])c1`, which “activity change, negative = growth inhibition” value is on record?
**A.** inactive: -22.1%

**Q.** Which “activity change, negative = growth inhibition” value does the source give for `CC(=O)N1CCN(C(C)=O)C1c1ccccc1` here?
**A.** inactive: -13.8%

**Q.** Which Potency does the source give for `O=C(NN(C(=O)c1ccccc1)c1cccs1)c1ccccc1` here?
**A.** inconclusive [inhibitor, partial curve]

**Q.** With `O=[N+]([O-])c1cnccc1Nc1ccccc1` as the compound, how does the Potency read?
**A.** inconclusive [inhibitor, single point]

**Q.** Which Potency does the source give for `CC(=O)N1CCN(CC(=O)Nc2ccccc2C(=O)NCc2ccc(C)cc2)CC1` here?
**A.** inconclusive [inhibitor, single point]

**Q.** Which Potency does the source give for `Cc1c(C(=N)C(C#N)C#N)c(=N)oc2c1ccc1ccccc12` here?
**A.** inconclusive [inhibitor, single point]

**Q.** For `CCCCOc1ccc(C(=O)NCC2(c3ccc(OC)cc3)CCOCC2)cc1`, which Potency is on record?
**A.** inconclusive [inhibitor, single point]

**Q.** For `CCN(c1ccccc1)S(=O)(=O)c1ccc(Cl)c(NC(=O)CNCc2ccccc2OC)c1`, which Potency is on record?
**A.** inconclusive [inhibitor, single point]

**Q.** For `CCN(C(=O)CSc1nnc(-c2cccs2)n1N)c1c(N)n(Cc2ccccc2)c(=O)[nH]c1=O`, which “activity change, negative = growth inhibition” value is on record?
**A.** inactive: 10.5%

**Q.** Which Potency does the source give for `C=CCn1c(SCc2cc(=O)n3ccsc3n2)nc2scc(C3CC3)c2c1=O` here?
**A.** inconclusive [inhibitor, single point]

**Q.** With `CCC(CC)c1nnc(NC(=O)Cc2ccccc2[N+](=O)[O-])s1` as the compound, how does the “activity change, negative = growth inhibition” value read?
**A.** inactive: -20.7%

**Q.** Which Potency does the source give for `CCOc1ccc(N(CC(=O)Nc2cccnc2)S(=O)(=O)c2ccc(C)cc2)cc1` here?
**A.** inconclusive [inhibitor, single point]

**Q.** Which Potency does the source give for `COc1ccc(S(=O)(=O)N2CCC3(CC2)OCCN3S(=O)(=O)c2ccc(OC)cc2)cc1` here?
**A.** inconclusive [inhibitor, single point]

**Q.** With `Cc1cc(C(=O)Nc2cccc(S(=O)(=O)N3CCCCC3)c2)c2ccccc2n1` as the compound, how does the Potency read?
**A.** inconclusive [inhibitor, single point]

**Q.** Which “activity change, negative = growth inhibition” value does the source give for `CCc1nc2ccc(C(=O)Nc3cccc(NS(C)(=O)=O)c3)cn2c1N(C)C(=O)Cc1ccccc1` here?
**A.** inactive: 2.6%

**Q.** Which Potency does the source give for `Cn1c(C(=O)Nc2ccc3c(c2)OCO3)cc2c(=O)n(C)c3ccccc3c21` here?
**A.** inconclusive [inhibitor, partial curve]

— PubChem BioAssay AID686978 (National Center for Advancing Translational Sciences (NCATS), 2013)
